Measured values: PMC6254359
Results are given in words; binding and its absence hold for the method and conditions named. Some entries that bind do so weakly or less than the wild type.

Sequences of proteins named here, by UniProt entry; tags and fusion partners are left off. A change or cut given only in a name is not applied to a line headed by its entry. A line that says so, or that is headed by a name, gives the form on record, which may keep a tag or linker. Residues count along the entry.
Trim5α from Rhesus macaque, Bbox coiled-coil regions, residues 88–296 with the E120K/R121D mutation (Q0PF16, form named): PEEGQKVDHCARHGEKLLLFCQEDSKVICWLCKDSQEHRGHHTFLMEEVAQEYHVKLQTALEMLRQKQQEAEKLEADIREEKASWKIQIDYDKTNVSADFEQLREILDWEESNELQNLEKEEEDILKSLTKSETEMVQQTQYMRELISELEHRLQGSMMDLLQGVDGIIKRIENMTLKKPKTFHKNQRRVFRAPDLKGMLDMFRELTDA
W196A RhT5 88–296 EK/RD (Q0PF16, form named): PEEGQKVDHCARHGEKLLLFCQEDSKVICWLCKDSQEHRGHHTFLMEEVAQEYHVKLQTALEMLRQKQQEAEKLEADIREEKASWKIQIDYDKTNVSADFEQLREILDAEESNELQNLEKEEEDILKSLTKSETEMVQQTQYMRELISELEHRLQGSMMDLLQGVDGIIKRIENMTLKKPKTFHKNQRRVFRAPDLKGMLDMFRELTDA
UniProt O95166: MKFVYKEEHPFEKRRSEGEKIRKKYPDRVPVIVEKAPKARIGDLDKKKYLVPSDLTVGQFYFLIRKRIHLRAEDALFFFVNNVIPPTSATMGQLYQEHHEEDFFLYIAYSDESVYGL
UniProt P60520: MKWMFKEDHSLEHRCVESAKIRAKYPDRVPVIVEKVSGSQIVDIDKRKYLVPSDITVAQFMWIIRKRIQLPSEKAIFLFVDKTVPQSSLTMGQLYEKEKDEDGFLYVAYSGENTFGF
UniProt Q9BXW4, residues 1-126: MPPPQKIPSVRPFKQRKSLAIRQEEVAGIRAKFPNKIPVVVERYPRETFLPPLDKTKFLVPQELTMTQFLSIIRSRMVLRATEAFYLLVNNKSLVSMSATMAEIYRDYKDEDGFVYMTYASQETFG

Assays:
[1] = biological target: Trim5α from Rhesus macaque, Bbox coiled-coil regions, residues 88–296 with the E120K/R121D mutation (Rhesus macaque) (UniProt Q0PF16); assay: AUC; sedimentation velocity, c(s) analysis of equimolar mixtures, 20 μM each; 20 °C, 50,000 rpm; 10 mM Tris/HCl pH 8, 150 mM NaCl, 0.1 mM TCEP; shift of the fast-moving peak; both purified
[2] = biological target: W196A RhT5 88–296 EK/RD (Rhesus macaque) (UniProt Q0PF16); assay: as above

binding [1]	binding [2]	Substance
binds	binds	GABARAP (from UniProt O95166 1-117)
binds	no binding (tested: 20 μM each)	GABARAPL2 (from UniProt P60520 1-117)
binds	no binding (tested: 20 μM each)	LC3A (from UniProt Q9H492 1-121)
binds	no binding (tested: 20 μM each)	LC3C (from UniProt Q9BXW4 1-126)
